Source: PubChem BioAssay AID624418 (National Center for Advancing Translational Sciences (NCATS), 2012)
“And” between values parts separate entries of the source, which are not always exact repeats. Equal values may be shown once. About 530 (0.13%) of roughly 410,000 compounds were called active. Inconclusive results, whose numbers are uncertain, are shown with a selection of clear calls. Calls come from the whole dose curve; as a rule, active = well fitted inhibition curve with a large enough effect; inconclusive = small, poorly fitted or top-dose-only effect, or another doubt; inactive = no such curve, though single readings can be large or run the other way. A potency beside an inconclusive call is a rough fit, not a confirmed value.

assay: qHTS of GLP-1 Receptor Inverse Agonists: Cytotox Screen; conditions: HEK293 cAMP-luciferase reporter cells, luminescence, 24 h; activity change, negative = inhibition: at 38.3 µM (top of the series) unless noted
Outline: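 1536-well qHTS counterscreen of the MLSMR; 200 cells/uL, 12 h pre-incubation, 23 nL cpd, 24 h at 37 deg C 5% CO2, luciferase detection reagent, 12 min RT, luminescence. Inhibition = undesired.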
% is set by controls: 0 for no effect and ±100 for the full control effect; potency is the fitted concentration of half-maximal effect.

SMILES	Potency	activity change, negative = inhibition
S=C(NCCC(c1ccccc1)c1ccccc1)Nc1cccc(Cl)c1	inconclusive: 11.2 µM [inhibitor, single point]	
Cc1ccc(NC(=O)CN2CC(C)SC2=NC2CCCCC2)cc1 (stereo not given)	inconclusive: 10 µM [inhibitor, partial curve, poor fit] and inconclusive: 10 µM [inhibitor, single point]	
CCOC(=O)NC(=S)Nc1cccc(NC(=S)NC(=O)OCC)c1		inactive: -2.03%
Cc1nn(-c2nnc(C)c(=O)[nH]2)c(C)c1SCC(=O)Nc1ccc(F)cc1		inactive: -14.3%
COc1ccc(/C=C/c2c([N+](=O)[O-])c(=O)n(C)c(=O)n2C)cc1O	inconclusive: 31.6 µM [inhibitor, single point]	
COC(=O)c1[nH]c2ccc(C)cc2c1NC(=O)CN1CCN(C(=O)c2ccccc2)CC1	inconclusive: 11.2 µM [inhibitor, partial curve]	
O=C(CCn1c(=O)c2ccccc2n(CC(=O)N2CCN(c3ccccc3)CC2)c1=O)NCc1ccco1	inconclusive: 28.2 µM [inhibitor, partial curve, poor fit]	
COc1cccc(N(CC(=O)NCCN2CCOCC2)S(=O)(=O)c2ccccc2)c1		inactive: 14.4%
CC1CC(C)CN(C(=O)CCn2c(=O)oc3ccccc32)C1 (stereo not given)		inactive: 0.276%
Cc1cc(C)c2c(N)c(C(=O)N/N=C/c3cccs3)sc2n1		inactive: 3.57%
CCN(CC)S(=O)(=O)c1ccc2c(c1)N(CC(=O)NCCCN1CCN(c3cc(C)ccc3C)CC1)C(=O)CO2	inconclusive: 28.2 µM [inhibitor, single point]	
Cc1c(-n2cc(C(=O)O)c(=O)c3cc(F)c(N4CCCC(O)C4)c(F)c32)c(=O)n(-c2ccccc2)n1C (stereo not given)		inactive: 7.98%
CCC(C)S(=O)(=O)c1oc(-c2ccc(F)cc2)nc1S(=O)(=O)c1ccc(F)cc1 (stereo not given)	inconclusive: 10 µM [inhibitor, partial curve]	
COc1ccc(Cn2c(C(=O)O)c(CNCc3ccc(C)o3)c3ccc(OC)cc32)cc1	inconclusive: 20 µM [inhibitor, single point]	
O=C(Nc1cccc(NC(=O)c2cc([N+](=O)[O-])ccc2Cl)n1)c1cc([N+](=O)[O-])ccc1Cl	inconclusive: 10 µM [inhibitor, partial curve]	
COc1ccc(/C(C)=N/Nc2nc(C)cc(-c3ccccc3)n2)cc1	inconclusive: 3.55 µM [inhibitor, full curve, poor fit]	
O=C1C(NS(=O)(=O)c2ccc(Br)cc2)=C(N2CCCCC2)C(=O)c2ccccc21	inconclusive: 10 µM [inhibitor, partial curve, poor fit]	
O=C(CSc1nc2ccccc2[nH]1)N/N=C/C=C\c1ccccc1[N+](=O)[O-]	inconclusive: 28.2 µM [inhibitor, single point]	
CCn1c(SCc2nc(-c3cccs3)no2)nnc1-c1c[nH]c2ccccc12	inconclusive: 28.2 µM [inhibitor, single point]	
CCc1cccc(NC(=O)Cn2nc(C)c3sc4ccccc4c3c2=O)c1		inactive: 2.86%
COc1cc(/C=C/C(=O)Nc2ccc(OC)c(S(=O)(=O)N3CCOCC3)c2)ccc1OC(F)F	inconclusive: 28.2 µM [inhibitor, single point]	
CCOC(=O)c1csc(Nc2nc3ccc(F)cc3s2)n1	inconclusive: 3.55 µM [inhibitor, full curve]	

SMILES	Potency	activity change, negative = inhibition
COc1cc(/C=C(\C#N)C(=O)NC2CCCCC2C)ccc1OS(=O)(=O)c1ccc(C)cc1 (stereo not given)	inconclusive: 12.6 µM [inhibitor, single point]	
COC(=O)c1ccc2nc(NC(=O)C3CCCCC3)sc2c1		inactive: 2.45%
O=C(NC(=S)Nc1ccc(N2CCCCC2)cc1)c1cccs1	inconclusive: 3.16 µM [inhibitor, partial curve, poor fit]	
CCn1c(/C=C2\C(=O)N(C(C)C)c3ccccc32)nc2ccccc2c1=O	inconclusive: 28.2 µM [inhibitor, single point]	
O=C(NC1CCCCC1)C(c1ccc2ncccc2c1)N(Cc1ccccc1)C(=O)c1cccs1 (stereo not given)	inconclusive: 17.8 µM [inhibitor, partial curve, poor fit]	
CC(C)(C)c1nnc(N/N=C/c2ccccc2O)n(N)c1=O	inconclusive: 1 µM [inhibitor, full curve, poor fit]	
CCOC(=O)N1CCc2c(sc(NCc3cccc(F)c3)c2C(=O)Nc2ccc(OCC)cc2)C1		inactive: -1.42%
O=C(Nc1nnc(-c2cccs2)o1)c1cccc(C(F)(F)F)c1	inconclusive: 11.2 µM [inhibitor, single point]	
CN(CCOc1ccccc1)C(=O)c1cc([N+](=O)[O-])ccc1N1CCOCC1	inconclusive: 28.2 µM [inhibitor, single point]	
COc1ccc2nc(-n3c(O)c(C4=c5ccccc5=NC4=O)[nH]c3=S)sc2c1	inconclusive: 28.2 µM [inhibitor, single point]	
CN(CC(=O)Nc1ccc(Cl)c(C(F)(F)F)c1)C(=O)c1ccc2c(c1)NC(=O)CS2	inconclusive: 28.2 µM [inhibitor, single point]	
Clc1ccc2[nH]c3c(NCCCN4CCOCC4)ncnc3c2c1		inactive: -18.8%
CC(/C=N/Nc1nc2ccccc2[nH]1)=C\c1ccccc1	inconclusive: 11.2 µM [inhibitor, partial curve, poor fit]	
CC(C)c1ccc(NC(=S)Nc2ccc3cn[nH]c3c2)cc1	inconclusive: 28.2 µM [inhibitor, single point]	
CC(OC(=O)Nc1cccc(Cl)c1)C(=O)O (stereo not given)	inconclusive: 10 µM [inhibitor, partial curve]	
Cc1ccc(COC(=O)c2[nH]c3c(c2C)C(=O)CC(c2ccc(Cl)cc2)C3)cc1 (stereo not given)		inactive: -0.0311%
CCOc1ccc(NS(=O)(=O)c2cnc(Cl)c(Cl)c2)cc1	inconclusive: 31.6 µM [inhibitor, single point]	
CCOc1cc(/C=C2\C(=O)N(c3nc(-c4ccc(Br)cc4)cs3)N=C2c2ccccc2)ccc1O	inconclusive: 31.6 µM [inhibitor, single point]	
CC(C)(C)C(=O)N1CCN(c2ccc([N+](=O)[O-])c(NCC3CCCO3)c2)CC1 (stereo not given)	inconclusive: 20 µM [inhibitor, partial curve, poor fit]	
COc1ccc(-n2cc(-c3ccccc3)c3c(N4CCOCC4)ncnc32)cc1		inactive: -15.3%
O=C(CCl)Nc1cccc(Oc2ccccc2)c1	inconclusive: 11.2 µM [inhibitor, single point]	
Cc1c(NC(=O)COC(=O)c2c3c(nc4ccccc24)CCCC3)c(=O)n(-c2ccccc2)n1C		inactive: -21%

SMILES	Potency	activity change, negative = inhibition
COC(=O)CCNC(=O)N1CCN(c2nnc(C)c3c(C)n(-c4ccccc4)nc23)CC1		inactive: 4.9%
Cc1cc(N2CCN(C)CC2)nc2ccc(NC(=S)NCCCN3CCN(C)CC3)cc12	inconclusive: 8.91 µM [inhibitor, partial curve, poor fit]	
COc1ccc(-c2nc(-c3cccs3)c(-c3cccs3)[nH]2)cc1O	inconclusive: 28.2 µM [inhibitor, single point]	
CC(=O)Oc1ccccc1/C=C/c1ccc2ccccc2[n+]1C	inconclusive: 12.6 µM [inhibitor, single point]	
OCC1OC(n2cnc3c(NCc4ccccc4O)ncnc32)C(O)C1O (stereo not given)	inconclusive: 1 µM [inhibitor, full curve, poor fit]	
Cc1ccc(C)c(NC2=NCC(=O)N2c2ccc3c(c2)OCCO3)c1	inconclusive: 20 µM [inhibitor, single point]	
O=C(NC(=S)N1CCN(c2ccc([N+](=O)[O-])cc2)CC1)c1ccccc1Cl	inconclusive: 3.55 µM [inhibitor, full curve]	
C/C(=N/Nc1ncc(C(F)(F)F)cc1Cl)c1ccncc1	inconclusive: 28.2 µM [inhibitor, single point]	
CCCc1nn2c(=O)cc(COC(=O)c3ccc4c(c3)OCO4)nc2s1		inactive: 8.6%
Cc1cc2nc(-c3ccc(OCc4ccccc4F)cc3)cc(C(F)(F)F)n2n1		inactive: 3.29%
CC(C)CC(=O)Nc1ccc(C(=O)Cn2c(=O)oc3ccccc32)cc1		inactive: -27.7%
O=C1/C(=C\c2ccc(O)c(O)c2)SC(=S)N1Cc1ccccc1	active: 10 µM	
CNC(=O)c1cc2c(-c3ccccc3)nn(C)c2s1		inactive: -2.35%
COC(=O)c1c(NC(=O)C2COc3ccccc3O2)sc2c1CCN(C(C)=O)C2 (stereo not given)	inconclusive: 11.2 µM [inhibitor, single point]	
CCN(CC)c1ccc(NC(=O)C2CCN(S(=O)(=O)c3c(C)noc3/C=C/c3ccccc3F)CC2)c(C)c1		inactive: 3.03%
CCOC(=O)c1cnn(-c2nc(-c3ccccc3F)cs2)c1C(F)(F)F		inactive: 2.94%
Cc1onc(-c2ccccc2)c1C(=O)N/N=C/c1ccc([N+](=O)[O-])s1	inconclusive: 31.6 µM [inhibitor, single point]	
CC[C@H](C)[C@@H]1NC(=O)c2cc([N+](=O)[O-])cc(F)c2NCCCC[C@@H](C(N)=O)NC(=O)[C@H](CC(N)=O)NC1=O	inconclusive: 11.2 µM [inhibitor, single point]	
COc1ccc(CC(=O)Nc2ccc(-c3cn4ccccc4n3)cc2)cc1OC		inactive: -25.6%
CN(C)c1ccc([N+](=O)[O-])cc1C(=O)O	inconclusive: 11.2 µM [inhibitor, partial curve, poor fit]	
COC(=O)Nc1ccc(S(=O)(=O)N2c3ccccc3CCC2C)cc1 (stereo not given)	inconclusive: 7.94 µM [inhibitor, partial curve, poor fit]	
